The values below come from the supplement of paper PMC8821664.

Structures are written as SMILES. Structures can show the parent of a compound that is named as a salt. The list shows a part of the results. Many values rest on one well or one pass, so single values are uncertain.
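Note: monoclonal Beas-2B line stably carrying CMV promoter-driven AQP5-HiBiT, 5,000 cells per well in 384-well plates, lytic HiBiT plus LgBiT NanoLuc luminescence, FDA-approved drug library screen.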

In the assay the test system is Beas-2B AQP5-HiBiT reporter cells. The experiment in a line: AQP5-HiBiT luminescence relative to vehicle (ratio to vehicle); higher = higher AQP5-HiBiT protein abundance. As to conditions: 10 µM; 18 h. (HiBiT is a short tag that completes a luciferase, so light tracks the accessible tagged protein.)
Take `CC(=O)OCC(=O)[C@@]1(O)CC[C@H]2[C@@H]3CCC4=CC(=O)CC[C@]4(C)[C@H]3C(=O)C[C@@]21C` [Cortisone acetate]: the AQP5-HiBiT luminescence amounted to 0.916.
The value for `Cc1ncc(CO)c(CO)c1O` [Pyridoxine] was 1.21; that for `C=C1CC[C@H](O)C/C1=C/C=C1\CCC[C@]2(C)[C@@H]([C@H](C)/C=C/[C@H](C)C(C)C)CC[C@@H]12` [Vitamin D2] was 1.28.
As for `O=C(Nc1c(Cl)cncc1Cl)c1ccc(OC(F)F)c(OCC2CC2)c1` [Roflumilast], the AQP5-HiBiT luminescence amounted to 0.957.
Regarding `Cc1nnc(C(C)C)n1C1C[C@H]2CC[C@@H](C1)N2CC[C@H](NC(=O)C1CCC(F)(F)CC1)c1ccccc1` (stereo in doubt) [Maraviroc], the AQP5-HiBiT luminescence was determined as 0.819.
On to `N=C(N)NS(=O)(=O)c1ccc(N)cc1` [Sulfaguanidine], for which the AQP5-HiBiT luminescence is 0.952.
`CC[C@H](C)C(=O)O[C@H]1C[C@H](O)C=C2C=C[C@H](C)[C@H](CC[C@@H](O)C[C@@H](O)CC(=O)O)[C@H]21` [Pravastatin sodium]: the AQP5-HiBiT luminescence stood at 0.587.
Regarding `CCCOc1ccc(C(=O)OCCN(CC)CC)cc1N` [Proparacaine hydrochloride], the AQP5-HiBiT luminescence was found to be 0.967.
Consider `O=C1CCCC(=O)C1C(=O)c1ccc(C(F)(F)F)cc1[N+](=O)[O-]` [Nitisinone], for which the AQP5-HiBiT luminescence was 0.827.
As for `COc1ccc(CN(CCN(C)C)c2ccccn2)cc1` [Pyrilamine maleate], the AQP5-HiBiT luminescence turned out to be 1.77.
Regarding `c1cnc2cc3c(cc2n1)[C@@H]1CNC[C@H]3C1` [Varenicline Tartrate], the AQP5-HiBiT luminescence was determined as 0.89.
As to `CNC[C@@H](O)c1ccc(O)c(O)c1` [L-Adrenaline], the AQP5-HiBiT luminescence was 1.13.
